Measurements from ChEMBL document CHEMBL1157539, “Thousands of chemical starting points for antimalarial lead identification” (Nature, 2010).
Over roughly 13,000 compounds, “IFI” has its median near 4; the highest 2% begin near 17. Some of the results follow.

Assay: GSK_TCMDC: Inhibition Frequency Index (IFI). The number of non-kinase HTS assays where a compound showed > 50 % inhibition, expressed as a percentage of the number of such assays in which the compound was tested (-0 is zero)
Type: functional

SMILES	IFI [%]
Cc1[nH]c(C)c(-c2ccc(-c3ccc(Cl)cc3)nc2)c(=O)c1Cl	0.92
Cc1[nH]c(C)c(-c2ccc(-c3ccc(Cl)cc3)cc2)c(=O)c1Cl	0.76
C[C@@H]1CC[C@H](NC(=O)[C@H](CC2CCCC2)NC(=O)N2CCNCC2)C(=O)CN1S(=O)(=O)c1ccccn1	5.93
CC(C)c1cccc(C(C)C)c1NC(=O)NNC(=O)c1ccc(CCN2CCC(c3nc(COCC(F)(F)F)c(-c4ccc(F)cc4)o3)CC2)cc1	9.22
COc1ccc(Cc2cnc(N)nc2N)cc1OCCCOc1ccccc1	6.34
CC(C)C(C(=O)Nc1ccc2c(c1)OCO2)c1ccc(Cl)cc1 (stereo not drawn)	9.18
O=C(COc1ccc(C(=O)c2ccccc2)cc1)Nc1nccs1	0
CNC(=O)c1cc(S(=O)(=O)N2CCN(c3ccccn3)CC2)c(C)s1	-0
CC(Oc1ccc(NC(=O)c2cccs2)cc1)C(=O)c1ccc(Cl)cc1 (stereo not drawn)	3
COc1ccc2c(=NN=Cc3ccccc3)cc(C)[nH]c2c1	0.74
O=C(Nc1ccc(-c2nc3ccccc3[nH]2)cc1)C1CCN(Cc2ccccc2)CC1	2.33
O=C(Nc1ccc(N2CCC(Nc3ccccn3)CC2)cc1)c1cnc(Cl)c(Cl)c1	17.4
O=C(N[C@@H](Cc1ccccc1)[C@H](O)CNCCC(F)(F)F)c1cccc(CCC2CC2)c1	6.1
COc1ccc(-c2cccc(NC(=O)c3ccc(Cl)cc3)c2)cc1CN1CCC(O)CC1	8.82
CCNC(=O)NC1CCN(Cc2c(-c3cccs3)nc3ccccc3c2C(=O)N[C@@H](C)C2CCCCC2)CC1	2.94
CCN(CC)/C(=N/C(=N)Nc1ccc(Br)cc1)NCCCCCCN/C(=N\C(=N)Nc1ccc(Br)cc1)N(CC)CC	11.1
COc1ccc(NC(=O)NC2CCN(CCCOc3cc(C)nc4ccccc34)CC2)cc1OC	0
COc1ccc(-c2cccc(NC(=O)c3cccc(F)c3)c2)cc1CN1CCCN(C)CC1	7.77
CCNc1cc(C(=O)N[C@@H](Cc2cccc(Cl)c2)[C@H](O)CNC(C)CCCC(C)C)cc(N2CCCCS2(=O)=O)c1 (stereo partly drawn)	9.72
O=C1OC(c2ccccc2)(c2ccccn2)CN1C1CCN(Cc2cccn2-c2ccc(Cl)cc2)CC1 (stereo not drawn)	3.42
O=C(C=Cc1ccc(Cl)c(Cl)c1)NCCCCCN1CCCC(CCCNC(=O)c2sc3ccccc3c2Cl)C1 (stereo not drawn)	9.02
COc1ccc(NC(=O)Nc2ccc(-c3ccncc3)c(C(F)(F)F)c2)cc1N1CCN(C)CC1	0.7

SMILES	IFI [%]
CCn1ccc2c(N3CCCS3(=O)=O)cc(C(=O)N[C@@H](Cc3ccccc3)[C@H](O)CNC3CCCCC3)cc21	1.46
O=C(NNC(=O)c1ccc(CCN2CCC(c3nc(COCC(F)(F)F)c(-c4ccc(F)cc4)o3)CC2)cc1)Nc1ccc(Oc2ccccc2)cc1	2.84
CCCNCc1ccc(-c2ccc(CN(CCOC)C(=O)/C=C/c3ccccc3C)cc2)nc1	1.52
CCO[C@H]1CN[C@H](C#Cc2cc3c(Nc4ccc(OCc5cccc(F)c5)c(Cl)c4)ncnc3s2)C1	4.8
CN1CCN(c2ccnc3ccc(NC(=O)Nc4ccc(-c5ccncc5)c(C#N)c4)cc23)CC1	7.69
Cc1c[nH]c2ccc(/C=C/C(=O)NC3CCC(CCN4CCc5ccc(C#N)cc5CC4)CC3)cc12 (stereo not drawn)	2.27
CCCCN(C(=O)c1ccccc1C)c1nnc(-c2ccccc2C)s1	2.56
COc1cc(C(F)(F)F)cc2[nH]c(CNCCCNc3nc4ccccc4[nH]3)cc12	9.35
S=C(Nc1cccc(Cl)c1)NC1CCN(c2ccnc3cc(Cl)ccc23)C1 (stereo not drawn)	13.6
CN(C)C(=S)N/N=C1/C(=O)Nc2ccccc21	5.04
CC(C)Cc1csc(NC(=O)C=Cc2ccco2)c1C(=O)O	5.52
O=C(NC1CC1)c1ccc2cc(C(=O)N3Cc4ccccc4C(c4ccccc4)C3)ccc2c1 (stereo not drawn)	2.96
CC(C)(C)c1ccc2[nH]c(-c3ccc(C(=O)NCc4cccc(C(F)(F)F)c4)cc3)nc2c1	2.96
COc1ccc2ncc(F)c(CCN3CC(O)C(CNCc4ccccc4)C3)c2n1 (stereo not drawn)	2.94
CCn1c(-c2nonc2N)nc2c(-c3cccc(NC(=O)Nc4cccc(OC)c4)c3)ncc(OCCCN)c21	15.6
Cc1c(CNCCCNc2cc(=O)c3ccccc3[nH]2)sc(/C=N/O)c1Br	2.17
Cc1c(-c2cccc(C(C)(C)NCCCN3CCCCC3)c2)cnc(N)c1C	0.74
Cc1nc(N)nc(N)c1-c1cc(Cl)c(Cl)c(Cl)c1	2.29
CN(CCCCCN1CCC(NC(=O)Nc2ccc(Oc3ccccc3)cc2)C1)C(=O)/C=C/c1ccc(Cl)c(Cl)c1 (stereo not drawn)	9.77
O=C(Nc1ccccc1)N(Cc1cccc(-c2cccc(CNCc3ccc4c(c3)OCO4)c2)c1)C1CCN(Cc2ccccc2)CC1	9.29
CN1CCC(N2CCN(Cc3cccc(-c4ccc(-c5nc6cc(F)ccc6[nH]5)cc4)c3)CC2)CC1	8.33
